# Results from PubChem BioAssay AID686979 (National Center for Advancing Translational Sciences (NCATS), 2013).
# Values joined by “and” are separate entries in the source; they are usually repeats but may differ in a detail not shown here. Equal values may be shown once. About 50,000 (12%) of roughly 420,000 compounds were called active. The shares of active, inactive and inconclusive entries below differ from those in the screen. The call rests on the fitted dose curve; in most records, active means well fitted inhibition curve with a large enough effect; inconclusive means small, poorly fitted or top-dose-only effect; inactive means flat fitted curve, though single readings scatter. Potencies of inconclusive entries are left out as doubtful fits.
# Assay: qHTS for Inhibitors of human tyrosyl-DNA phosphodiesterase 1 (TDP1): qHTS in cells in presence of CPT; further: nearly all actives have a fitted effect of over 55% in size
# Settings: chicken DT40 Tdp1-/-;hTDP1 cells + 20 nM CPT, ATP luminescence, 48 h; activity change, negative = growth inhibition: at 46.2 µM (top of the series) unless noted
# Summary of the method: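 Chicken DT40 Tdp1-/- cells complemented with human TDP1, 400 cells/well, exposed to compounds plus 20 nM camptothecin for at least 48 h at 37 C; viability read as ATP content by CellTiter-Glo luminescence.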
# On the % scale 0 is the no-effect control and ±100 the full control effect; potency means the concentration at half of the fitted maximal effect; tags describe the fitted curve by direction and shape.
SMILES,Potency,"activity change, negative = growth inhibition"
CCCO/N=C1/C(=O)N(c2ccccc2)c2ccccc21,active: 13 µM,
O=C(O)C(F)=C(c1ccccc1)c1ccccc1,,inactive: -12.3%
O=C(Cn1cc(S(=O)(=O)Cc2ccccc2Cl)c2ccccc21)NCCc1ccccc1,"inconclusive [inhibitor, single point]",
Cn1c(=O)n(C)c2cc(S(=O)(=O)Nc3ccccc3O)ccc21,"inconclusive [inhibitor, single point]",
COc1ccc(-c2cn(Cc3ccc(C(N)=O)cc3)c(CCN)n2)cc1,,inactive: 1.65%
COc1cc(Cl)c(CNC[C@H]2O[C@@H](n3ccc(=O)[nH]c3=O)[C@H](O)[C@@H]2O)c(Cl)c1O,,inconclusive: -38% [inhibitor]
C=C(C)C1Cc2c(C)nn(-c3cccc4ccccc34)c2C1 (stereo not drawn),active: 20.6 µM,
CCOc1ccc(CC(=O)NCc2ccc3c(c2)CCN3C(=O)c2ccccc2)cc1OCC,active: 16.4 µM,
O=C(NC(=S)NNC(=O)c1ccco1)c1ccc(Br)cc1,"inconclusive [inhibitor, single point]",
O=C(CN1CCCCC1)Nc1cc(Cl)ccc1Cl,"inconclusive [inhibitor, single point]",
COc1ccc(NC(=O)CC2C(=O)N(c3cccc(OC)c3)C(=O)N2CCC2=CCCCC2)cc1 (stereo not drawn),"inconclusive [inhibitor, single point]",
CCCS(=O)(=O)c1nc(S(=O)(=O)c2ccc(C)cc2)c(N2CCC3(CC2)OCCO3)s1,,inactive: -26%
CC(C)c1ccc(OCC(O)CN2CCCC2)cc1 (stereo not drawn),,inactive: -4.05%
NC(=O)N/N=C/c1c(O)ccc2oc3c(c12)CCCC3,"inconclusive [inhibitor, single point]",
Cc1ccc(-c2noc(CN(C(=O)C34CC5CC(CC(C5)C3)C4)C(C)C)n2)cc1,"inconclusive [inhibitor, partial curve]",
CCN(CC)CCNc1ncnc2c1sc1nc(N3CCCC3)c3c(c12)CC(C)(C)OC3,"inconclusive [inhibitor, single point]",
CC(C)OCC(O)CN1CCNCC1 (stereo not drawn),,inactive: 0.248%
Cc1ccc(S(=O)(=O)N(C)c2ccccc2C(=O)Nc2ccc(F)cc2F)cc1,"inconclusive [inhibitor, single point]",
CCc1ccc(OC(C)C(=O)Nc2ccccc2C(=O)N2CCOCC2)cc1 (stereo not drawn),,inactive: -20.6%
COc1cc2ccccc2cc1C(=O)N(CCN(C)C)c1nc2c(C)cccc2s1,active: 16.4 µM,
CCn1nnc2cc(C(=O)Nc3cc(C)ccc3C)ccc21,"inconclusive [inhibitor, partial curve]",
CCOC(=O)N1CCC2(CC1)C(C#N)=C(N)Oc1c2c(C)nn1-c1cccc(Cl)c1,active: 16.4 µM,
Cn1nnnc1Sc1ncnc2scc(-c3ccccc3)c12,active: 15.8 µM and active: 14.6 µM,
COc1ccc(C)cc1N(C(=O)c1ccccc1)c1nc2ccccc2s1,,inactive: -28.1%
Cc1c(C(=O)Nc2ccc(Oc3ccccc3)cc2)sc2nc3n(c(=O)c12)CCC3,"inconclusive [inhibitor, partial curve]",
Cc1ccc(C)c(NCCC#N)c1,,inactive: 21.2%

SMILES,Potency,"activity change, negative = growth inhibition"
C(#CSCc1ccccc1)SCc1ccccc1,,inactive: -11.6%
COc1ccc(C(=O)OCC(=O)NC(=O)NC2CCCC2)c(O)c1,,inactive: 7.46%
CN1OC[C@@H]2CN(C(=O)C(C)(C)C)[C@H](c3cccc(Oc4ccccc4)c3)C[C@@H]21,,inactive: -26.9%
Cc1cccc(CN2CCN(CC(=O)NCCc3ccc(Cl)cc3)C2=O)c1,,inactive: -13%
COc1ccc(NC(=O)C2(C)CCN2CCOc2ccccc2)cc1OC (stereo not drawn),"inconclusive [inhibitor, single point]",
O=C(Nc1cc2c3c(c1)CC(=O)N3CCC2)c1ccc(Cl)cc1,"inconclusive [inhibitor, single point]",
CC(=O)c1cccc(NC(=O)C2Cc3c(-c4cccc(F)c4)ccnc3O2)c1 (stereo not drawn),active: 18.4 µM,
COc1ccc(-c2nc3cnc(N4CCNCC4)nc3n(Cc3cccc(OC)c3)c2=O)cc1,active: 6.51 µM,
Cc1cc(C)c(NC(=O)c2oc3c(c2C)-c2[nH]ncc2CC3)c(C)c1,active: 16.4 µM,
CCC(=O)Nc1ccc(NC(=O)CSc2nnc(-c3ccco3)n2CC)cc1,,inactive: 0.0811%
COc1cc2c(cc1NC(=O)c1ccncc1)oc1ccccc12,"inconclusive [inhibitor, single point]",
Cn1ccc2c(-c3cncc4ccccc34)cc3c(c21)C1CCC3O1 (stereo not drawn),"inconclusive [inhibitor, partial curve, poor fit]",
CCOc1ccc(NC(=O)c2cc3c(=O)n(C)c4ccccc4c3n2C)cc1,active: 8.2 µM,
COc1cccc(NC(=O)CN(C)C(=O)CC2Sc3ccccc3NC2=O)c1 (stereo not drawn),,inactive: -4.88%
COc1ccc(/C=N/OCc2ccccc2C#N)c(OC)c1,"inconclusive [inhibitor, single point]",
CCOC(=O)c1ccc(NC(=O)CNS(=O)(=O)c2ccccc2)cc1,"inconclusive [inhibitor, single point]",
Cc1ccc(S(=O)(=O)Nc2cccc(C(=O)N3CCOCC3)c2)c(C)c1NS(C)(=O)=O,,inactive: 8.93%
COc1ccc(NC(=O)c2cc(-c3ccc(F)cc3OC(C)C)n[nH]2)c(OC)c1,"inconclusive [inhibitor, single point]",
CCOc1cc(NC(=O)c2cccs2)c(OCC)cc1NC(=O)CCC(=O)NCc1ccccn1,"inconclusive [inhibitor, single point]",
COC(=O)c1ccc(Cn2c(C)c(C(=O)NCc3ccc(Cl)c(Cl)c3)sc2=O)o1,"inconclusive [inhibitor, single point]",
Cc1ccc(C(=O)Nc2ccc(C(=O)O)cc2)cc1S(=O)(=O)N1CCC(C)CC1,,inactive: -4.6%
Cc1cccc(-c2nc3scc(CCNS(=O)(=O)c4ccc(F)c(C(F)(F)F)c4)n3n2)c1,"inconclusive [inhibitor, single point]",
COC(=O)c1cc(C(=O)N2CCN(c3ncccn3)CC2)cc([N+](=O)[O-])c1,,inactive: -19.1%
N=c1c2c3c(sc2nc2n1CCCCC2)CCCC3,"inconclusive [inhibitor, single point]",
CC(C(=O)c1ccccc1)[n+]1cccc(Cl)c1 (stereo not drawn),,inactive: 2.93%
CCCNCc1cc(OC)c(OCc2ccccc2)cc1Br,"inconclusive [inhibitor, single point]",

SMILES,Potency,"activity change, negative = growth inhibition"
CCCCOc1ccc(C(=O)NCc2cn3cccc(C)c3n2)cc1,"inconclusive [inhibitor, single point]",
COc1ccc(-c2c(C(F)(F)F)[nH]n3c(=O)cc(-c4ccccc4)nc23)cc1,"inconclusive [inhibitor, single point]",
O=C(c1ccco1)N1CCN(Cc2cccc3ccccc23)CC1,active: 8.2 µM,
O=C(Cn1nnc(N2CCCCC2)n1)c1ccc(Cl)c(Cl)c1,,inactive: -16%
Cn1cnc([N+](=O)[O-])c1Sc1ccc(C(C)(C)C)cc1,"inconclusive [inhibitor, single point]",
Nc1cc(=O)[nH]c(SCC(=O)Nc2cc(S(=O)(=O)N3CCCCCC3)ccc2Cl)n1,,inactive: 4.13%
CC(C)N1CCC(=NNc2ccc([N+](=O)[O-])cc2S(=O)(=O)N2CCOCC2)CC1,"inconclusive [inhibitor, single point]",
CC(=O)OC1CCC2(C)C(=CC=C3C2CCC2(C)C3CCC2C(C)/C=C/C(C)C(C)C)C1(C)C (stereo not drawn),,inactive: 3.87%
COc1ccc(Cl)cc1NC(=O)CSc1nc2c(oc3ccccc32)c(=O)n1Cc1ccco1,,inconclusive: -34.9% [inhibitor]
CCOc1nc2ccccc2cc1C=O,active: 2.31 µM,
S=C(Nc1ccc(Cl)cc1Cl)NC1CCN(Cc2ccccc2)CC1,active: 20.6 µM,
Fc1ccccc1N1CCN(c2ncnc3onc(-c4ccc(Cl)cc4)c23)CC1,,inactive: -25.8%
CCOc1ccc(N(C)C(=O)C2CCN(S(=O)(=O)c3c(C)noc3/C=C/c3ccc(C)cc3)CC2)cc1,active: 4.11 µM,
CC(=O)Nc1ccccc1N(C)S(=O)(=O)c1ccc(C)cc1,active: 23.1 µM,
COC1CCC2(C)C(=CCC3C4CC(O)CC4(C)CCC32)C1 (stereo not drawn),active: 20.6 µM,
Cc1ccc(NC(=O)/C=C/c2ccco2)cc1F,active: 7.31 µM,
Cc1cc(/C=N/NC(=O)c2cccs2)c(C)n1-c1ccccc1,active: 16.4 µM,
COc1cccc(C(=O)NC(Cc2ccccc2)c2ccc3c(c2)OCCCO3)c1 (stereo not drawn),"inconclusive [inhibitor, partial curve, poor fit]",
O=C(NCc1ccc(Cl)cc1)C1CCC(CNS(=O)(=O)c2ccccc2)CC1 (stereo not drawn),inactive,
Cc1nnc(SCC(=O)NC(=O)NC(C)(C)C)n1N,"inconclusive [inhibitor, single point]",
CCN(CC)c1nn2c(=O)c(C(=O)NCCc3ccccc3C)cnc2s1,active: 16.4 µM,
O=C(COc1ccccc1)Nc1cccc(-c2nc3ccccc3[nH]2)c1,"inconclusive [inhibitor, single point]",
CCOc1cc2c(cc1OCC)C(CC(=O)O)N(C(=O)Nc1ccc(Br)c(C)c1)CC2 (stereo not drawn),,inactive: -11.6%
O=C(Nc1ccc(N2CCN(c3ccc(F)cc3)CC2)c(C(=O)O)c1)c1cccs1,,inactive: -3.54%
CC1CC(=O)N(c2ccc(NCCc3ccccc3)c([N+](=O)[O-])c2)C1=O (stereo not drawn),,inactive: 3.84%
O=C1N2CCSC2=NC1(NS(=O)(=O)c1ccccc1)C(F)(F)F (stereo not drawn),,inactive: 0.138%
